According to article PMC7331671:
Results are given in words; binding and its absence hold for the method and conditions named. Some entries that bind do so weakly or less than the wild type.

The chains behind the UniProt entries cited, without tags or fusion partners. Where a name states a change or a piece, a line headed by the entry shows the natural chain unless it says otherwise. Residues count along the entry.
UniProt P19022, residues 160-906: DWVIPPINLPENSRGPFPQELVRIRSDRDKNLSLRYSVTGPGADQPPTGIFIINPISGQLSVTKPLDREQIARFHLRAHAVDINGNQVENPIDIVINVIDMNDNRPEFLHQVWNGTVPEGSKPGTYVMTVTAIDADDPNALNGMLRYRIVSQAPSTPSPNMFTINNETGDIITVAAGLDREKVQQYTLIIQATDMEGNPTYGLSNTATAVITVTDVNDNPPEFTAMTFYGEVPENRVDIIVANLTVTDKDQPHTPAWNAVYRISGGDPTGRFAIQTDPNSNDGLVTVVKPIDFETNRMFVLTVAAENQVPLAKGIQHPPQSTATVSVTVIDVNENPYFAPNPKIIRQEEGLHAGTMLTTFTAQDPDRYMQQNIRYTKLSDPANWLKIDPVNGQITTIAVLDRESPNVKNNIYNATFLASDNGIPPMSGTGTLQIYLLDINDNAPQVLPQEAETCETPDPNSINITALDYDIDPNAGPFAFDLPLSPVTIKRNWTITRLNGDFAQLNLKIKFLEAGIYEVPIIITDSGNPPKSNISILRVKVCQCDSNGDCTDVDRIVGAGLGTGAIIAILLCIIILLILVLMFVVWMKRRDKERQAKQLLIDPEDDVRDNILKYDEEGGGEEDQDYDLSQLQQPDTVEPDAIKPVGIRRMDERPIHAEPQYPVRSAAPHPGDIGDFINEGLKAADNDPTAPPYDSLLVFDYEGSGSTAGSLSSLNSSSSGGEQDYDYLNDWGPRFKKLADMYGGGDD
UniProt P35590, residues 22-1138: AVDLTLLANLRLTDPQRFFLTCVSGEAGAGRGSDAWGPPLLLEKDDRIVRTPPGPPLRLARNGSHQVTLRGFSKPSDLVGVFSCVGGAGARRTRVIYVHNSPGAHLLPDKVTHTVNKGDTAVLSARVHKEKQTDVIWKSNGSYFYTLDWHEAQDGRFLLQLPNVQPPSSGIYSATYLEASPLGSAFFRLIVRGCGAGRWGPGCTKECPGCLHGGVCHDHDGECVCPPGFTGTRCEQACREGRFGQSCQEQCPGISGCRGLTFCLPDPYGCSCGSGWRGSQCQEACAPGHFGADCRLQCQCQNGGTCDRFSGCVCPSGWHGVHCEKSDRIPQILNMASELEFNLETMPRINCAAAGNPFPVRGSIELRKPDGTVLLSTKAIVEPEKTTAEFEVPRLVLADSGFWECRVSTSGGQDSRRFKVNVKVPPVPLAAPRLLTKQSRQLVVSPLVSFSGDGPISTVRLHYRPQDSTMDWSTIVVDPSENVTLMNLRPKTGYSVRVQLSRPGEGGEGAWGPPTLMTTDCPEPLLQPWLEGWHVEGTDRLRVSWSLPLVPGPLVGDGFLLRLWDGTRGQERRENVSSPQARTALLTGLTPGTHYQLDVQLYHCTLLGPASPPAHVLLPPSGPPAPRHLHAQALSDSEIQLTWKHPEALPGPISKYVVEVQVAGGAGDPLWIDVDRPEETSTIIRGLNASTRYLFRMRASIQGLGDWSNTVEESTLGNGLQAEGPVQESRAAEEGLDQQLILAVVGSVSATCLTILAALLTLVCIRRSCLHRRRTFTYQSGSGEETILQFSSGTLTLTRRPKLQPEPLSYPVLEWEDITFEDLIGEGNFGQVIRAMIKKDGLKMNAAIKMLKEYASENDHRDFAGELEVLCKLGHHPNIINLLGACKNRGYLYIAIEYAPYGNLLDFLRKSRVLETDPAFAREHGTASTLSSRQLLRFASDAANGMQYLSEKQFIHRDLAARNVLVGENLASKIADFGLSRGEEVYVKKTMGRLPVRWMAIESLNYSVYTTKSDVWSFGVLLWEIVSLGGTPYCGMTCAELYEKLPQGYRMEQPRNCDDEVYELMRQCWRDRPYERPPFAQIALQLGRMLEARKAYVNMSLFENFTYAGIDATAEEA
UniProt Q9NZQ7: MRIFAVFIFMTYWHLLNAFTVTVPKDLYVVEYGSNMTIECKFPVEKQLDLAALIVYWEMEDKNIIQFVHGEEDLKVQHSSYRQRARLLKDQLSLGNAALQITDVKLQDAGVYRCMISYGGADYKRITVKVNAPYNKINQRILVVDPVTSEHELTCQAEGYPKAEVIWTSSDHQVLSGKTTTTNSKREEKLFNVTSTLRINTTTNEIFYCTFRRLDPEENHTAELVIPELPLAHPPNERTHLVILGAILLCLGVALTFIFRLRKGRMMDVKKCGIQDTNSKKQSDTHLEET

Key:
[1] = target: T1, full length human PCDH7 expressed in HEK293 cells (human) (UniProt O60245); test: flow cytometry on cells; HEK293 cells transfected with full length human PCDH7; 5 μg/mL purified Fc-tagged protein in 1% BSA for 1 h at 4 °C; detected with anti-human-Fc FITC; FITC geometric mean; only the binder purified
T1 sequence: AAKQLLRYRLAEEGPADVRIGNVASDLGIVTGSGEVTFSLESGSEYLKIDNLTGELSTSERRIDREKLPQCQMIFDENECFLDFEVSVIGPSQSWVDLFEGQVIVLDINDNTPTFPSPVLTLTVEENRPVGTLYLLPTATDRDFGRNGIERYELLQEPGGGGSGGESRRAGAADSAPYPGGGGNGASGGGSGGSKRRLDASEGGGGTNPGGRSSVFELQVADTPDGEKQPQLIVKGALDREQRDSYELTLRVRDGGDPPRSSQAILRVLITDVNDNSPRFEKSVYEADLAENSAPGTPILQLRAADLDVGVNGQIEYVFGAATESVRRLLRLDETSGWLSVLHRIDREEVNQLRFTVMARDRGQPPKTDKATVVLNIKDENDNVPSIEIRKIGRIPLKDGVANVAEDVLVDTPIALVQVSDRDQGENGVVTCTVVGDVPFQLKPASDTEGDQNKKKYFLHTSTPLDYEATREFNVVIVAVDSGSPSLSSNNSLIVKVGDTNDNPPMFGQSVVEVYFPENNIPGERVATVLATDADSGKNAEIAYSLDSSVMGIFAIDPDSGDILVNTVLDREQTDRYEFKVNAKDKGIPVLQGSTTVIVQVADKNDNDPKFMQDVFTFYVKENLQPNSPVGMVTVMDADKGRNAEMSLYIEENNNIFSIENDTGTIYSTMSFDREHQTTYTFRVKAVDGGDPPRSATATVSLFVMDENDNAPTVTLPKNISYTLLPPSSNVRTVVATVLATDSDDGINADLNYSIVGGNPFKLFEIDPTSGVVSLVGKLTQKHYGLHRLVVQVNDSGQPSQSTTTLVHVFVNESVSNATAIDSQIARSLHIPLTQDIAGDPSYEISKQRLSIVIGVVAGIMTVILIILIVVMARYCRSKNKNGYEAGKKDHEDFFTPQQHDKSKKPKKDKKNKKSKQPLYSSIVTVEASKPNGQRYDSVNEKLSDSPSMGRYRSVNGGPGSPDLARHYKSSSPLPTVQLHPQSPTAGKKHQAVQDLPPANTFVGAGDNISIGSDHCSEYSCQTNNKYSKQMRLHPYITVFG

[2] = target: T2, ARMCX3, clone of the single-pass transmembrane protein library expressed in COS-7 cells (UniProt Q9UH62); test: single-clone expression cloning screen (binding of a purified Fc-tagged bait to transfected cells, fluorescence imaging); COS7 cells in 384-well plates, each well transfected with one library clone, 48 h; blocked with 1% BSA; GluN1-NTD-Fc 10 μg/mL for 1 h at 4 °C; fixed; detected with Alexa Fluor-488 anti-human IgG; z-score threshold > 5; duplicate plates; only the binder purified
T2 sequence: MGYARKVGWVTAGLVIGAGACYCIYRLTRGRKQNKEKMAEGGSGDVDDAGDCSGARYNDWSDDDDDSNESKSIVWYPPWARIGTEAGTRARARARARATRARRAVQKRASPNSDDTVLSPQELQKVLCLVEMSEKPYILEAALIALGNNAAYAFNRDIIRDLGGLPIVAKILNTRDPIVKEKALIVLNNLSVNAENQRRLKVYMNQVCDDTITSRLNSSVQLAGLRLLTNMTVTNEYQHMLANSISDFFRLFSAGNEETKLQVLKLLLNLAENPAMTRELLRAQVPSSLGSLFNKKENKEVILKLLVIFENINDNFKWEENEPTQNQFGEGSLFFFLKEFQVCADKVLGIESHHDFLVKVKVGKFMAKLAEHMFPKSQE

[3] = target: N-Cadherin, clone of the single-pass transmembrane protein library expressed in COS-7 cells (UniProt P19022); test: as above
[4] = target: T3, Protocadherin 7 (PCDH7), clone of the single-pass transmembrane protein library expressed in COS-7 cells (UniProt O60245); test: as above
T3 sequence: T1 sequence

[5] = target: TIE1, clone of the single-pass transmembrane protein library expressed in COS-7 cells (UniProt P35590); test: as above

PD-L1-Fc control protein (from UniProt Q9NZQ7 19-238) (Fc fusion)
binding [1]: no binding (tested: 5 μg/mL)

GluN1-NTD-Fc (human GRIN1 D23-Q393 fused to the Fc portion of human IgG1) (from UniProt Q05586 23-393) (Fc fusion)
binding [1]: binds | binding [2]: no binding (tested: 10 μg/mL) | binding [3]: no binding (tested: 10 μg/mL) | binding [4]: binds | binding [5]: no binding (tested: 10 μg/mL)
